# Source: the supplement of paper PMC11383711
# The list shows a part of the results. Binding of human antibodies (heavy:light variable regions, tested as scFv in one mRNA-display pool) to influenza hemagglutinin, with or without the stem antibody CR9114 bound first. Score = (mean enrichment − median) / interquartile range of that screen; higher = more enriched, 0 = typical non-binder. Active = above the paper's cut-off per screen: stems 28; unblocked H1 Solomon Islands 5, H1 Michigan 3, H3 5, H5 19, H7 2.85, both B 5; blocked 9, 7, H5 10, H7 10, B Phuket 10, B Lee 11.5. Scores are scaled within each screen and are no affinities; replicates correlate at about 0.6 to 0.9, and antibodies rare in the pool are noisier.
# B1: antibody 2G02 (protein)
# chain 1: EVQLVESGGGLVQPGRSLRLSCAASGFTFDDYTMHWVRQAPGRGLEWVSSINWVSSTVGYADSVKGRFTISRDNAKNSLYLQMNSLRPEDTALYYCARDRRTDATMDYYFYSAMDVWGRGTTVTVSS
# chain 2: DIQMTQSPSSLSASVGDRVTITCQASQDISKYLNWYQQKPGKAPKLLIYDASTLETGVPSRFSGSASGTDFTFTISNLQPEDIATYYCQQYDNLPITFGQGTRLEIK
# B2: antibody 3G04 (protein)
# chain 1: VQLVESGGAVVQPGRSLRVSCAASGFNFRTYGMYWVRQAPGKGLEWVALISYDGDKKFYADFAKGRFTISRDNSKNRFYLQMNSLQSDDTAMYYCAKDGPRGGGSGSLAHWGQGTLVTVSS
# chain 2: VSASPGHKITISCSGSGPNIGTNRVSWYQQFPGTVPRPLIYDDYLRPSGIPERFSGSKSGTSATLDITELQTGDEADYYCGTWDSSLSVWVFGGGTKLTVL
# B3: W85-1F07 (protein)
# chain 1: QVQLAQSGPEVKKPGTSVKVSCKASGFTFSRAAVQWVRQARGQPLEWMGWIVGGSGKANYAQKFQERVTITRDMSTSTAYMELSSLRSEDTAVYYCAADASGYDLHYYYYYGMDVWGQGTTVTVSS
# chain 2: QSALTQPASVSGSPGQSITISCTGTSSDVGGYDFVSWYQQCPDNAPKLMIYEVSHRPSGVSNRFSGSKSGNTASLTISGLRSEDEADYYCSSYTITNTWVFGGGTKLTVL
# B4: C1-2-B02 (protein)
# chain 1: VQLVQSGAELKKPGASVKVSCKASGYTFTDYYLHWVRQAPGQGLEWMGWIKPNFGGTIYAQKFQGRVTVTSDTSINTAYMELSRLTSDDTAVYYCARAVYYDLTSDFCVDCYDAFDVWGQGTMVTVSS
# chain 2: DIQLTQSPSFLSAFVGDRVTITCRASQGISTYLAWYQQKPGKAPKLLIYAASILQSGVPSRFRGSGSGTEFTLTISSLQPEDFATYYCQQLNSYVVTFGQGTKVEIK
# B5: antibody 4G04 (protein)
# chain 1: VQLVESGGAVVQPGRSLRLSCTASGFIFSRFAIHWVRQAPGKALEWVAVISDDASKEDYADSVKGRFIISRDNSKSTLYLQMNSLTTEDTAVYYCARDPTHSGDIISWFFDSWGQGILVTVSS
# chain 2: SYELTQPPSVSVSPGQTANITCSGDKLGDKYTSWYQQKSGQSPVLVIYHDTRRPSGIPERFSGSSSGNTATLTISGTQVMDEADYYCQAWVWDSYVVFGGGTKLTVL
# B6: antibody 3C04 (protein)
# chain 1: VQLVQSGAEVKKPGASVKVSCKASGYTFTYHYVYWVRQAPGQGLEWMGWMSPKTGDTNISQRFQGRVTMTRDTSITTAYMEMSRLRFDDTAVYYCTRGQYSDHFDSWGQGTLVTVSS
# chain 2: SYELTQPPSVSVAPGQTAMITCGGNHIGTKSVHWYQQRPGQAPVLVVYDNRVRSSGIPERFSGSNSGNTATLTISRVEAGDEADYYCQVWDSSSDHNVVFGGGTKLTVL
# Key:
# Assay in all cases: mRNA display binding score; higher = more enriched on the antigen
# [1] = molecular target: Influenza A H1N1 A/Michigan/45/2015 hemagglutinin ectodomain
# Protocol: (§1)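 A pool of natively paired antibodies, displayed as scFv on mRNA, was selected once on antigen-coated beads and sequenced before and after; two replicates.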
# [2] = molecular target: Influenza A H1N1 A/Solomon Islands/3/2006 hemagglutinin ectodomain
# Protocol: as §1
# [3] = molecular target: Influenza A H3N2 A/Singapore/INFIMH-16-0019/2016 hemagglutinin ectodomain; settings: antigen blocked with: nothing
# Protocol: as §1
# [4] = molecular target: Influenza A H5N1 A/Qinghai/1A/2005 hemagglutinin ectodomain
# Protocol: as §1
# [5] = molecular target: Influenza A H7N9 A/Shanghai/2/2013 hemagglutinin ectodomain
# Protocol: as §1
# [6] = molecular target: Influenza B/Lee/1940 hemagglutinin ectodomain
# Protocol: as §1
# [7] = molecular target: Influenza B/Phuket/3073/2013 hemagglutinin ectodomain
# Protocol: as §1
# [8] = antigen blocked with: 2 µM CR9114 IgG
Binder,"mRNA display binding score [1, 8]",mRNA display binding score ([1]; antigen blocked with: nothing),"mRNA display binding score [2, 8]",mRNA display binding score ([2]; antigen blocked with: nothing),mRNA display binding score [3],"mRNA display binding score [4, 8]",mRNA display binding score ([4]; antigen blocked with: nothing),"mRNA display binding score [5, 8]",mRNA display binding score ([5]; antigen blocked with: nothing),"mRNA display binding score [6, 8]",mRNA display binding score ([6]; antigen blocked with: nothing),"mRNA display binding score [7, 8]",mRNA display binding score ([7]; antigen blocked with: nothing)
B1,inactive: 0.576,inactive: -0.445,inactive: 0.89,inactive: -0.0203,inactive: -0.143,inactive: -0.374,inactive: 0.69,inactive: -0.884,inactive: -0.487,active: 82.7,active: 134,active: 12.9,inactive: 4.17
B2,inactive: -0.173,inactive: -0.163,inactive: -0.382,inactive: -0.119,inactive: -0.231,inactive: -0.294,inactive: 0.0602,inactive: -0.817,inactive: -0.211,inactive: -0.241,active: 9.55,inactive: 0.177,inactive: 1.58
B3,inactive: -0.324,inactive: -0.151,inactive: 0.0257,inactive: -0.562,inactive: -0.199,inactive: -0.0932,inactive: -0.191,inactive: 0.0147,inactive: -0.028,inactive: -0.00685,inactive: -0.384,inactive: -0.0695,inactive: -0.426
B4,inactive: -0.124,inactive: 0,inactive: 0.326,inactive: -0.158,inactive: 0.0274,inactive: 0.0473,inactive: -0.436,inactive: -0.142,inactive: 0.0656,inactive: 3.81,inactive: 4.41,inactive: 0.142,inactive: -0.0334
B5,inactive: 0.273,inactive: -0.117,inactive: -0.132,inactive: -0.611,inactive: -0.369,inactive: -0.114,inactive: -0.385,inactive: 0.119,inactive: 0.0513,inactive: 0.362,inactive: 0.771,inactive: -0.349,inactive: -0.118
B6,inactive: -0.353,inactive: -0.403,inactive: -0.755,inactive: -0.364,inactive: -0.324,inactive: 0.214,inactive: 0.255,inactive: 0.474,inactive: -0.737,inactive: 0.0255,inactive: 3.16,inactive: 3.35,active: 5.98
